Data as given in the supplement of paper PMC4967469.
IC50 is the fitted dose that halves viability relative to control wells, and lower means more sensitive; a limit (>, <) means that the fit lies beyond the doses tested. AUC sums up the same curve from the lowest dose to the 256-fold higher top dose: 1 means no effect, lower means more sensitive. For some assays here: A top dose marked as inferred was calculated from the reported fits. For some assays here: An entry number marks a drug with two screens in the source, which often give different values.

Columns and labels:
Experiment in all cases: Viability of human cancer cell lines after 72 h of drug (GDSC screen)
UNC0638 = compound: COc1cc2c(NC3CCN(C(C)C)CC3)nc(C3CCCCC3)nc2cc1OCCCN1CCCC1 [UNC0638]
Experimental: (§1)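 Human cancer cell lines in 384-well plates, medium with 10% serum, drug for 72 h over a 256-fold dose range (nine 2-fold or five 4-fold steps up to the top dose). Adherent lines were fixed and stained with the nucleic acid dye Syto60, suspension lines read with resazurin; signal relative to control wells, capped at 0 and 100%. One two-parameter sigmoid per drug and line, fitted in a mixed model over all curves with the slope shared within a line.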

PI-103 = compound: Oc1cccc(-c2nc(N3CCOCC3)c3oc4ncccc4c3n2)c1 [PI-103]; conditions: top dose 10.24 µM
Experimental: as §1

Tretinoin = compound: CC1=C(/C=C/C(C)=C/C=C/C(C)=C/C(=O)O)C(C)(C)CCC1 [Tretinoin]; conditions: top dose 10 µM; top dose inferred
Experimental: as §1

SB-505124 = compound: Cc1cccc(-c2[nH]c(C(C)(C)C)nc2-c2ccc3c(c2)OCO3)n1 [SB-505124]; conditions: top dose 10 µM; top dose inferred
Experimental: as §1

GSK690693 = compound: CCn1c(-c2nonc2N)nc2c(C#CC(C)(C)O)ncc(OC[C@H]3CCCNC3)c21 [GSK690693]; conditions: top dose 10.24 µM; top dose inferred
Experimental: as §1

BX-795 = compound: O=C(NCCCNc1nc(Nc2cccc(NC(=O)N3CCCC3)c2)ncc1I)c1cccs1 [BX-795]; conditions: top dose 5 µM; top dose inferred
Experimental: as §1

[1] = top dose 20 µM, screen: GDSC drug entry 1236, top dose inferred
[2] = top dose 40 µM, screen: GDSC drug entry 245

Cell Line	AUC (UNC0638; [1])	IC50 (UNC0638; [1]) [µM]	AUC (UNC0638; [2])	IC50 (UNC0638; [2]) [µM]	AUC (PI-103)	IC50 (PI-103) [µM]	AUC (Tretinoin)	IC50 (Tretinoin) [µM]	AUC (SB-505124)	IC50 (SB-505124) [µM]	AUC (GSK690693)	IC50 (GSK690693) [µM]	AUC (BX-795)	IC50 (BX-795) [µM]
RERF-LC-MS (lung adenocarcinoma, adherent)	0.945	> 20	0.905	> 40	0.706	2.47	0.944	> 10	0.949	> 10	0.985	> 10.2	0.872	> 5
RERF-LC-Sq1 (lung squamous cell carcinoma, adherent)	0.94	> 20	0.703	12.3	0.744	4.58	0.866	> 10	0.953	> 10	0.917	> 10.2	0.958	> 5
RH-41 (rhabdomyosarcoma, adherent)	0.797	7.73	0.895	34.7	0.934	> 10.2	0.691	1.94	0.847	5.65	0.992	> 10.2	0.888	4.02
RO82-W-1 (thyroid, adherent)	0.764	9.21	0.92	> 40	0.961	> 10.2	0.981	> 10	0.98	> 10	0.983	> 10.2	0.846	> 5
RPMI-2650 (head and neck, adherent)	0.973	> 20	0.862	38.8	0.63	1.5	0.985	> 10	0.911	> 10	0.889	> 10.2	0.961	> 5
RPMI-7951 (melanoma, adherent)	0.863	16.5	0.703	9.12	0.603	1.22	0.946	> 10	0.986	> 10	0.924	> 10.2	0.837	3.22
RT4 (bladder, adherent)	0.986	> 20	0.706	9.83	0.985	> 10.2	0.968	> 10	0.986	> 10	0.987	> 10.2	0.982	> 5
SAS (head and neck, adherent)	0.951	> 20	0.867	> 40	0.567	0.999	0.934	> 10	0.974	> 10	0.958	> 10.2	0.98	> 5
SBC-3 (small cell lung carcinoma, adherent)	0.936	> 20	0.74	11.2	0.142	0.057	0.987	> 10	0.984	> 10	0.928	> 10.2	0.787	1.96
SBC-5 (small cell lung carcinoma, adherent)	0.954	> 20	0.897	33.3	0.993	> 10.2	0.979	> 10	0.989	> 10	0.993	> 10.2	0.908	4.66
SCC-9 (head and neck, adherent)	0.978	> 20	0.758	17.6	0.309	0.16	0.978	> 10	0.978	> 10	0.83	9.04	0.859	> 5
SCC-25 (head and neck, adherent)	0.836	15.9	0.758	15.6	0.866	> 10.2	0.969	> 10	0.981	> 10	0.925	> 10.2	0.907	> 5
SF295 (glioma, adherent)	0.844	16	0.782	18.2	0.623	1.43	0.965	> 10	0.927	> 10	0.955	> 10.2	0.827	3.38
SISO (cervix, adherent)	0.693	4.22	0.7	8.89	0.71	2.44	0.972	> 10	0.983	> 10	0.959	> 10.2	0.885	> 5
SJRH30 (rhabdomyosarcoma, adherent)	0.743	6.36	0.819	23.7	0.433	0.418	0.986	> 10	0.978	> 10	0.63	1.48	0.865	4.68
SK-GT-4 (oesophagus, adherent)	0.847	> 20	0.753	16.3	0.721	3.21	0.952	> 10	0.975	> 10	0.693	2.56	0.85	> 5
SK-HEP-1 (liver, adherent)	0.979	> 20	0.825	21.9	0.978	> 10.2	0.972	> 10	0.981	> 10	0.989	> 10.2	0.838	3.07
SK-MEL-3 (melanoma, adherent)	0.634	3.12	0.627	5.92	0.615	1.4	0.976	> 10	0.893	> 10	0.916	> 10.2	0.979	> 5
SK-MEL-5 (melanoma, adherent)	0.795	11.7	0.949	> 40	0.666	2.06	0.98	> 10	0.956	> 10	0.979	> 10.2	0.875	> 5
